Test results taken from the supplement of paper PMC10369915.
The other results are listed elsewhere or left out. Rule as the data show it: active = 3.2 or more and inactive = the rest. Only a few entries rise above the background.

How the values were obtained:
Assay in all cases: enrichment score (SH2-bound / input frequency) (ratio); bacterial display of known human phosphotyrosine sites (pTyr-Var adds point mutants) read by sequencing; higher = stronger binding; tyrosines were phosphorylated by kinases first
Conditions in all cases: peptide library: pTyr-Var
SHP2 C-SH2 domain E139D = biological target: SHP2 C-SH2 domain E139D
[1] = biological target: SHP2 C-SH2 domain wild-type
SHP2 N-SH2 domain L43F = biological target: SHP2 N-SH2 domain L43F
SHP2 N-SH2 domain T42A = biological target: SHP2 N-SH2 domain T42A
SHP2 N-SH2 domain T52S = biological target: SHP2 N-SH2 domain T52S
[2] = biological target: SHP2 N-SH2 domain wild-type

Measured: enrichment score
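Also: displayed peptides selected on beads carrying the immobilized SH2 domain, with library peptides lacking any tyrosine serving as negative controls.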

KFLVGYEMLAQ [GALT_Y339_M336L]
inactive: SHP2 C-SH2 domain E139D 1.46 | [1] 1.22 | SHP2 N-SH2 domain L43F 1.27 | SHP2 N-SH2 domain T42A 1.35 | SHP2 N-SH2 domain T52S 1.26 | [2] 1.18

PADCRYYTFPQ [GAMT_Y222_A224T]
inactive: SHP2 C-SH2 domain E139D 0.732 | [1] 1.41 | SHP2 N-SH2 domain L43F 0.94 | SHP2 N-SH2 domain T42A 0.668 | SHP2 N-SH2 domain T52S 1.12 | [2] 1.16

AAPAAYDAADT [GAMT_Y27]
inactive: SHP2 C-SH2 domain E139D 0.471 | [1] 0.364 | SHP2 N-SH2 domain L43F 0.428 | SHP2 N-SH2 domain T42A 0.345 | SHP2 N-SH2 domain T52S 0.498 | [2] 0.501

SKKSTYQALLD [GANC_Y43]
inactive: SHP2 C-SH2 domain E139D 0.688 | [1] 0.318 | SHP2 N-SH2 domain L43F 0.535 | SHP2 N-SH2 domain T42A 0.658 | SHP2 N-SH2 domain T52S 0.36 | [2] 0.439

FIGRIYLFLTK [GARS1_Y414_YF]
inactive: SHP2 C-SH2 domain E139D 1.81 | [1] 1.72 | SHP2 N-SH2 domain L43F 1.33 | SHP2 N-SH2 domain T42A 1.46 | SHP2 N-SH2 domain T52S 1.86 | [2] 1.39

ADRSCYDLSCR [GARS1_Y467_H472R]
inactive: SHP2 C-SH2 domain E139D 3.02 | [1] 2.66 | SHP2 N-SH2 domain L43F 2.67 | SHP2 N-SH2 domain T42A 2.67 | SHP2 N-SH2 domain T52S 2.81 | [2] 2.19

FEGAIYRKDIG [GART_Y417_V421I]
inactive: SHP2 C-SH2 domain E139D 0.897 | [1] 0.713 | SHP2 N-SH2 domain L43F 0.963 | SHP2 N-SH2 domain T42A 0.783 | SHP2 N-SH2 domain T52S 0.677 | [2] 0.825

FRTGHYLCNAC [GATA1_Y223_D218Y_YF]
inactive: SHP2 C-SH2 domain E139D 1.56 | [1] 1.44 | SHP2 N-SH2 domain L43F 1.73 | SHP2 N-SH2 domain T42A 1.2 | SHP2 N-SH2 domain T52S 1.66 | [2] 1.43

PVFQVYPLLNC [GATA1_Y78]
inactive: SHP2 C-SH2 domain E139D 0.96 | [1] 0.952 | SHP2 N-SH2 domain L43F 0.892 | SHP2 N-SH2 domain T42A 0.878 | SHP2 N-SH2 domain T52S 0.905 | [2] 1.1

NACGLYYKLHN [GATA2_Y376]
inactive: SHP2 C-SH2 domain E139D 0.87 | [1] 1.12 | SHP2 N-SH2 domain L43F 0.907 | SHP2 N-SH2 domain T42A 0.979 | SHP2 N-SH2 domain T52S 0.878 | [2] 0.975

NACGLYFKLHN [GATA2_Y376_YF]
inactive: SHP2 C-SH2 domain E139D 0.617 | [1] 0.914 | SHP2 N-SH2 domain L43F 0.707 | SHP2 N-SH2 domain T42A 0.54 | SHP2 N-SH2 domain T52S 0.761 | [2] 0.905

DGTGHYLCNAC [GATA5_Y208]
inactive: SHP2 C-SH2 domain E139D 0.84 | [1] 0.986 | SHP2 N-SH2 domain L43F 0.819 | SHP2 N-SH2 domain T42A 0.643 | SHP2 N-SH2 domain T52S 0.695 | [2] 0.744

NACGLYHKMNG [GATA5_Y216]
inactive: SHP2 C-SH2 domain E139D 1.61 | [1] 1.49 | SHP2 N-SH2 domain L43F 1.27 | SHP2 N-SH2 domain T42A 1.17 | SHP2 N-SH2 domain T52S 1.07 | [2] 1.49

NACGLYHTMNG [GATA5_Y216_K218T]
inactive: SHP2 C-SH2 domain E139D 1.18 | [1] 1.19 | SHP2 N-SH2 domain L43F 1.44 | SHP2 N-SH2 domain T42A 1.22 | SHP2 N-SH2 domain T52S 0.971 | [2] 1.38

ASSPVYVPTTR [GATA6_Y188]
inactive: SHP2 C-SH2 domain E139D 0.563 | [1] 0.591 | SHP2 N-SH2 domain L43F 0.665 | SHP2 N-SH2 domain T42A 0.478 | SHP2 N-SH2 domain T52S 0.616 | [2] 0.636

ETALHYIHDGI [GATD3A_Y250]
inactive: SHP2 C-SH2 domain E139D 0.825 | [1] 0.841 | SHP2 N-SH2 domain L43F 0.762 | SHP2 N-SH2 domain T42A 0.929 | SHP2 N-SH2 domain T52S 0.916 | [2] 1.01

NTYEKYWPFYQ [GATM_Y103]
inactive: SHP2 C-SH2 domain E139D 1.49 | [1] 1.19 | SHP2 N-SH2 domain L43F 1.57 | SHP2 N-SH2 domain T42A 1.25 | SHP2 N-SH2 domain T52S 1.25 | [2] 1.46

NTFENYWPFFQ [GATM_Y103_K102N_YF]
inactive: SHP2 C-SH2 domain E139D 1.77 | [1] 1.48 | SHP2 N-SH2 domain L43F 1.61 | SHP2 N-SH2 domain T42A 1.51 | SHP2 N-SH2 domain T52S 1.57 | [2] 1.33

NTFEKYWPFFQ [GATM_Y103_YF]
inactive: SHP2 C-SH2 domain E139D 1.62 | [1] 1.42 | SHP2 N-SH2 domain L43F 1.39 | SHP2 N-SH2 domain T42A 1.58 | SHP2 N-SH2 domain T52S 1.64 | [2] 1.6
